The results in this text go back to PubChem BioAssay AID1346428 (National Center for Advancing Translational Sciences (NCATS), 2018).

Several values for one entry are separate records, joined by “and”; a condition that tells them apart may be missing. Identical values can stand only once. The campaign covered roughly 48,000 compounds. About 1,200 (2.5%) were called active. Not shown: some 2% with an inconclusive outcome.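 How the source made its calls: active means activation of at least 60% and not above a set upper limit (about 1 call in 100 departs from these limits); inconclusive means activation of 40% to 60%, or above that upper limit; inactive means activation under 40%.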 The list shows a part of the results.

Sequence of UniProt O75388 (O75388 whole entry, looked up): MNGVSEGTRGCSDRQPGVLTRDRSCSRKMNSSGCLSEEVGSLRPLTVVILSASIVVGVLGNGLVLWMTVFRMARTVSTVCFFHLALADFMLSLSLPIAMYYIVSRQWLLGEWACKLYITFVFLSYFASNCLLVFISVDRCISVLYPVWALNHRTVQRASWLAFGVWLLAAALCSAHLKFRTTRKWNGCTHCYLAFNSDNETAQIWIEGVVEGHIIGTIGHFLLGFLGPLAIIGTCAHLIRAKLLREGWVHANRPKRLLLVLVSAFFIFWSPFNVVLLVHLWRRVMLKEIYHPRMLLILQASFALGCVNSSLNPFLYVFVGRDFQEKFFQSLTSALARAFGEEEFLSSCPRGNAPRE

For this assay, the target named is Probable G-protein coupled receptor 32 (Homo sapiens) (UniProt O75388). Description: qHTS for Agonists of Human Resolvin D1 Receptor DRV1. Further: 0% is about no effect. The settings on record: CHO-K1 GPR32 beta-arrestin PathHunter luminescence, 90 min; at 76.9 µM; stronger effect = higher value; zero percent set by DMSO-only wells. In short, it runs like this:
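Readings come from a cell-based beta-arrestin complementation format: CHO-K1 GPR32 stable cells (2,500/well) treated 90 min with compounds, then beta-Gal substrate added for 1 h before chemiluminescence imaging.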
(In general: qHTS replaces the single test concentration by a dilution series.)
With `O=C(Cn1cc(SCc2ccccc2)c2ccccc21)N1CCCCC1`, the activation is inactive: -16.1%. The figure for `CSc1ccc(CNC(=O)C2CCN(c3nnc(-n4cccc4CNc4ccc(C)cc4)s3)CC2)cc1` is inactive: -35.9%; for `N#Cc1c(-n2ncnc2-c2ccc(Br)cc2)sc2c1CCCCC2` it is inactive: -1.43%; for `COc1ccc(OC)c(CCNC(=O)C2CCN(c3ncnc4c3nc3n4CCCCC3)CC2)c1` it is inactive: 4.68%.

Consider `CCc1ccc(CNC(=O)CN(c2ccc(C)cc2)S(=O)(=O)N(C)C)cc1`, for which the activation is active: 87.2%.

Regarding `O=C(Nc1nnc(S(=O)(=O)N2CCCC2)s1)c1ccccc1Br`, the activation was inactive: 41.3%.

For the compound `Cc1ccccc1OCCCn1c(-c2ccc(Cl)cc2)nc2ccccc2c1=O`, the activation is inactive: -0.14%. In the case of `COc1ccc(Nc2nc3cc(Cl)c(Cl)cc3n3cnnc23)cc1Cl`, the activation was inactive: -2.75%. On to `Cn1c(=O)oc2cc(S(=O)(=O)N3CCC(C(=O)NCc4ccc(F)cc4)CC3)ccc21`, for which the activation was inactive: 29.1%.

As to `COc1ccc(NC(=O)CC2C(=O)N(c3ccc(C)cc3)C(=O)N2Cc2ccc3c(c2)OCO3)cc1` (stereo unspecified), the activation was inactive: -3.19%. The figure for `Cc1ccccc1Cn1nnc2c(=O)[nH]c(C3CCCN(C(=O)c4ccc(F)cc4)C3)nc21` (stereo unspecified) is inactive: -10.6%; for `CC1CCN(CCCNC(=O)c2cn(C)c3ccc(S(=O)(=O)N(C)C4CCCCC4)cc3c2=O)CC1` it is inactive: 4.78%; for `COc1cc2c(cc1OC)C(COc1ccc(C(C)C)cc1)N(C(=O)c1ccc(S(=O)(=O)N3CCCC3)cc1)CC2` (stereo unspecified) it is inactive: -4.29%.

For the compound `COc1ccc(N2CCN(S(=O)(=O)c3ccc4c(c3)CCCN4C(C)=O)CC2)cc1`, the activation was inactive: 9.74%. The figure for `CCC(C)n1c(SCc2c(F)cccc2Cl)nc2ccsc2c1=O` (stereo unspecified) is inactive: -17.6%; for `Cc1ccc(C)c(CN2C(=O)c3ccccc3S(=O)c3ccc(C(=O)N4CCN(c5ccccc5F)CC4)cc32)c1` (stereo unspecified) it is inactive: -1.26%.

In the case of `COc1cc(N2C(=O)CSC23C(=O)N(Cc2ccc(C)cc2)c2ccccc23)cc(OC)c1OC` (stereo unspecified), the activation is inactive: -7.3%. The figure for `Cc1ccc2c(c1)N(C(=O)CCC(=O)NCc1cccs1)CCO2` is inactive: -12%. The result for `COc1ccc(Br)c(C(=O)Nc2cc3c(cc2N2CCCCC2)n(C)c(=O)c(=O)n3C)c1` reads inactive: 0.0826%. As to `CCc1cc(C(=O)NC(C)c2ccccc2)no1` (stereo unspecified), the activation is inactive: -5.37%. As for `CCc1ccc(-c2nc3cc(NC(=O)c4cc5ccccc5cc4OC)ccc3o2)cc1`, the activation is inactive: 21.8%.

On to `COC(=O)c1cc(NC(=O)[C@H](CCS(C)(=O)=O)N2Cc3ccccc3C2=O)cc(C(=O)OC)c1`, for which the activation was inactive: -9.08%. `COc1cc(C2CC(=O)N(Cc3ccc(F)cc3)c3ccccc3S2)cc(OC)c1OC` (stereo unspecified): the activation was inactive: 16.6%. For `COc1cc2c(cc1OC)C(COc1ccc(F)cc1)N(C(=O)c1ccc(S(=O)(=O)N3CCCC3)cc1)CC2` (stereo unspecified), the activation was inactive: 12%. For `COC(=O)c1ccccc1NC(=O)c1ccc2nc(Cc3ccccc3)oc2c1`, the activation is inactive: -17.7%. The figure for `COC(=O)c1ccccc1NC(=O)c1nc(S(=O)(=O)Cc2cccc(C)c2)ncc1Cl` is inactive: 4.39%. The figure for `O=C(CCCn1c(=O)c2ccccc2n(Cc2ccc(F)cc2Cl)c1=O)NCCc1ccc(Cl)cc1` is inactive: -17.4%; for `Cc1ccc(-n2nc(CO)c(C(=O)NCc3cccs3)n2)cc1C` it is inactive: -5.5%.

For the compound `Cc1cccc(NC(=O)c2c(C)cc(C)nc2SCC(=O)Nc2c(C)cc(C)cc2C)c1`, the activation was inactive: -24.1%. Regarding `CCOc1ccc(-c2cc(-c3nc(-c4cc(OC)c(OC)c(OC)c4)no3)[nH]n2)cc1Cl`, the activation is inactive: 6.77%. The result for `COc1cc(-c2noc(-c3ccc(N4CCCC4)c([N+](=O)[O-])c3)n2)cc(OC)c1OC` reads inactive: 1.25%.

As for `CC(=O)N1CCc2c(sc3c2c(=O)n(Cc2ccccc2)c(=O)n3Cc2cccc(Cl)c2)C1`, the activation is inactive: 3.93%. The figure for `COC(=O)c1ccc(Nc2nc(-c3ccc(C)cc3)nc3ccccc23)cc1` is inactive: 4.39%; for `CC(=O)O[C@H]1C[C@@H]2CC[C@@H]3[C@H](CC[C@@]4(C)[C@H]3C[C@H]([N+]3(C)CCCCC3)[C@@H]4OC(C)=O)[C@@]2(C)C[C@@H]1[N+]1(C)CCCCC1` it is inactive: -4.33%; for `COc1ccc(-c2cn3nc(N4CCC(C(=O)NCc5cccc(Cl)c5)CC4)sc3n2)cc1` it is inactive: -2.43%. The figure for `CC1=Nc2cc(C(=O)NC3CCC(C)CC3)ccc2Sc2c(C)ccc(C)c21` (stereo unspecified) is inactive: -0.201%; for `COc1cc(C(=O)N2CCc3c([nH]c4ccccc34)C2c2ccc(F)cc2)cc(OC)c1OC` (stereo unspecified) it is inactive: -31.5%; for `Cc1ccccc1Cn1cnc2c(oc3ccccc32)c1=O` it is inactive: -24.3%. Regarding `CCC(=O)N1CCc2cc(CNC(=O)Cc3ccc(OC)c(OC)c3)ccc21`, the activation is inactive: -14.6%. The result for `CCOc1ccccc1CNC(=O)C1CCN(C(=O)N2CCOc3ccc(Cl)cc32)CC1` reads inactive: -3.44%; that for `CCN(CC)C(=O)Cn1ncc2c([nH]c3ccc(C)cc32)c1=O`, inactive: -30.6%. The figure for `COc1ccc(NC(=O)c2ccc3c(c2)N(Cc2cccc(Cl)c2)C(=O)c2ccccc2S3(=O)=O)cc1Cl` is inactive: -12%; for `FC(F)(F)c1ccc2c(c1)ncc1c(-c3ccccc3)nn(-c3ccccc3)c12` it is inactive: 0.0603%; for `Cc1ccc(-n2nc(C(=O)NCc3ccc(F)cc3Cl)c3c4ccccc4n(C)c3c2=O)cc1` it is inactive: 11.6%. The figure for `Cc1cccc(N2CCN(c3nc4ccc(C(=O)c5ccccc5)cc4n4cnnc34)CC2C)c1` (stereo unspecified) is inactive: -8.97%; for `Cc1cc(C)n2nc(-c3ccc(Cl)cc3)nc2n1` it is inactive: -0.308%; for `Cc1cn2c(=O)cc(COC(=O)c3cccc(NC(=O)COc4ccccc4)c3)nc2s1` it is inactive: -22.6%. Take `CCOC(=O)c1c(NC(=O)CSc2cn(CCNC(=O)c3ccc(OC)c(OC)c3)c3ccccc23)sc2c1CCC2`: the activation is inactive: -3.65%. The result for `COc1ccc(OC)c(NC(=O)c2oc3c(c2C)-c2nn(Cc4ccc(Cl)cc4)cc2CC3)c1` reads inactive: -9.84%; that for `O=C1c2c(O)ccc(O)c2C(=O)c2c(NCCNCCO)ccc(NCCNCCO)c21`, inactive: -19.9% and inactive: -33.9%; that for `CC(C)Oc1ccc(CNC(=O)c2ccc(CS(=O)Cc3ccccc3Cl)o2)cc1` (stereo unspecified), inactive: 11.5%. The result for `COC(=O)CN1C(=O)CSc2ccc(S(=O)(=O)Nc3ccccc3)cc21` reads inactive: -11.2%; that for `Cc1cccc(OCCSc2nc3ccc(NC(=O)COc4ccccc4C)cc3s2)c1`, inactive: 3.1%. Take `CC(=O)Nc1ccc(NC(=O)Cn2cc3c(n2)CCCCC3)cc1`: the activation was inactive: -7.27%. In the case of `Cc1ccc2c(CC(=O)N3CCN(c4cccc(Cl)c4)CC3)coc2c1C`, the activation is inactive: -35.7%. As to `CCN(CC)S(=O)(=O)c1ccc2c(c1)c(=O)c(C(=O)NCCc1ccc(OC)c(OC)c1)cn2C`, the activation was inactive: 4.41%. The figure for `COc1cccc(CN(C(=O)c2oc3ccc(Br)cc3c2C)C2CCS(=O)(=O)C2)c1` (stereo unspecified) is inactive: -23.8%; for `CCOC(=O)c1ccccc1NC(=O)c1c(-c2ccccc2)noc1C` it is inactive: -26.7%; for `CCC(=O)N1CCc2cc(Br)cc(S(=O)(=O)NCc3cccc(OC)c3)c21` it is inactive: -3.24%. For the compound `Cc1coc2cc3oc(=O)c(CCC(=O)N4CCCCC4)c(C)c3cc12`, the activation is active: 107%. The result for `COC(=O)CNC(c1ccccc1)c1cc(Br)ccc1NC(=O)c1ccc(Cl)cc1` (stereo unspecified) reads inactive: -6%; that for `Cc1nc2ccn(Cc3ccccc3)c(=O)c2cc1C(=O)Nc1ccc(F)cc1Cl`, inactive: -1.75%; that for `Cc1ccccc1-c1ccnc2c(-c3ccc(F)cc3)c(C)nn12`, inactive: 15.8%.

In the case of `Cc1ccc(-c2cc(N)n(Cc3cccc(Cl)c3)n2)cc1`, the activation was inactive: 16.3%. Take `COc1cccc(NC(=O)Cn2c(=O)n(-c3ccccc3)c(=O)c3c4c(sc32)CCCC4)c1`: the activation is inactive: 8.86%.

Consider `CCN(CC)C(=O)CSc1nc(-c2ccccc2)cc(-c2ccc(OC)cc2)c1C#N`, for which the activation is inactive: 1.57%. The figure for `Cc1ccc(C)c(NC(=O)CCc2nc3cccnc3n2Cc2cccs2)c1` is inactive: -4.18%; for `Cc1cc2nc(NC(=O)c3ccc(S(=O)(=O)N4CCOCC4)cc3)sc2cc1C` it is inactive: -4.68%; for `COc1ccccc1-c1noc(-c2ccc(NCc3ccccc3)c([N+](=O)[O-])c2)n1` it is inactive: -29.9%. The figure for `COc1ccc(C2Nc3ccccc3-n3c(-c4ccccc4)c4c(=O)n(C)c(=O)n(C)c4c32)cc1` (stereo unspecified) is inactive: 0.293%; for `COCCCN1CN=C(NS(=O)(=O)c2ccc(NC(C)=O)cc2)NC1` it is inactive: -2.86%. The figure for `COc1ccc(C)cc1NC(=O)CN(C)S(=O)(=O)c1ccc2c(c1)CCCN2C(C)=O` is inactive: 1.69%. Turning to `Cc1ccc(-n2nc3c(N4CCC(C(=O)NCCc5ccccc5)CC4)nnc(C)c3c2C)cc1`, the activation was inactive: 1.87%. The result for `CCOc1ccc(NC(=O)Nc2cccc(C)n2)cc1` reads inactive: -3.81%; that for `COc1ccc(C)cc1NC(=O)CN1C(=O)CSc2ccc(S(=O)(=O)N3CCCC3)cc21`, inactive: -22.2%; that for `CC1=C(c2cccc(Cl)c2)S(=O)(=O)NC1=NCc1ccccc1C`, inactive: -10.4%. On to `CCC(=O)N1CCc2cc(S(=O)(=O)N3CCN(c4ccccc4F)CC3)ccc21`, for which the activation was inactive: 4.66%. For `COc1cc(OC)c(NC(=O)Cn2nc(C)n3cccc3c2=O)cc1Cl`, the activation is inactive: -6.12%.

For `COc1ccc(N2Cc3cccc(C(=O)Nc4ccc(C)cc4)c3C2=O)cc1`, the activation is inactive: 10.9%. For the compound `CCOC(=O)c1sc2ccccc2c1S(=O)(=O)N1CCN(c2ccccc2F)CC1`, the activation is inactive: -14.3%.

For the compound `O=C(NCCS(=O)(=O)N1CCN(c2ccccc2F)CC1)C1CC(=O)N(c2ccc(F)cc2)C1` (stereo unspecified), the activation was inactive: -8.37%.
